Measurements taken from the BET-seq Pho4 binding data (Le et al. 2018).
This is one part of the list. These are noisy estimates, calculated here from bound and input reads.

The sequences below were run against T1, Pho4 (S. cerevisiae) (UniProt P07270) (assay: relative binding free energy (BET-seq); higher = weaker binding). Details: reference: library average.
T1 sequence: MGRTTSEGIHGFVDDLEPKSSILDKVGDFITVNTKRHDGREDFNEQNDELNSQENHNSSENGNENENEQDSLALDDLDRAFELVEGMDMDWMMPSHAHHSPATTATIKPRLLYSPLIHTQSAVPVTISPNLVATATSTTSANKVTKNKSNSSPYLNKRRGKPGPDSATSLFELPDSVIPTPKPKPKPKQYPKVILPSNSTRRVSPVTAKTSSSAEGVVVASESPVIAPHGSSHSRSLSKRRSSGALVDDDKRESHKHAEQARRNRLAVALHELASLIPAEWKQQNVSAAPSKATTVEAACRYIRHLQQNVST

Relative binding free energy, -0.23 kcal/mol:
TGCTGCACGTGCGTGG

Relative binding free energy, 0.01 kcal/mol:
GAGGGCACGTGGAAGT
GCATGCACGTGTATGT
ATGATCACGTGGGCTG
TAGTGCACGTGGCGGG
ATTATCACGTGGTGCG
CGTCTCACGTGGGGGG

Relative binding free energy, 0.27 kcal/mol:
GGTTTCACGTGGCATT
ATGGTCACGTGGAAAG
ATTTTCACGTGTAGGG

Relative binding free energy, -0.03 kcal/mol:
AGTAGCACGTGTAGGA
GAAGCCACGTGTTGTT
CGTTACACGTGGGGTA

Relative binding free energy, 0.19 kcal/mol:
TTCTTCACGTGGGAAA
TAAATCACGTGTGGGG
GTTTCCACGTGGTTAG
GATGTCACGTGTGGCC
ATATTCACGTGGTACG
GGTCTCACGTGGGCCG

Relative binding free energy, 0.04 kcal/mol:
CATGTCACGTGTTATT
CATGTCACGTGGTTGT
GGGTGCACGTGGTAAG
TGGAACACGTGTGCTT
GCAGCCACGTGTGGGG
GTTGCCACGTGTGGTC
GGGGTCACGTGCGCAG
ATGATCACGTGGGTGT

Relative binding free energy, -0.12 kcal/mol:
TTTGGCACGTGGCAGG
GCAAACACGTGGGGGG
TTATACACGTGTGCGT
CTGTGCACGTGCAGGT
TAGTGCACGTGGCTAG

Relative binding free energy, 0.17 kcal/mol:
AGGAACACGTGATAGT
TGGCACACGTGCTTTG
TAATTCACGTGGGATC
GGGGTCACGTGTATGG
GGTCGCACGTGATTTT
AGAGGCACGTGAGGTG

Relative binding free energy, -0.04 kcal/mol:
GTTGGCACGTGATGCT
TGGTCCACGTGGCGGT

Relative binding free energy, 0.42 kcal/mol:
GGGCTCACGTGAATTT

Relative binding free energy, 0.37 kcal/mol:
TCGTTCACGTGTGAAG
TCTTTCACGTGATGGG

Relative binding free energy, 0.51 kcal/mol:
TGGCTCACGTGAAGTT

Relative binding free energy, -0.18 kcal/mol:
TTTAGCACGTGGCGTC

Relative binding free energy, 0 kcal/mol:
GTTTACACGTGCGGTG
TTGACCACGTGTGTGG
GAGAGCACGTGGATGG

Relative binding free energy, -0.27 kcal/mol:
GTAGGCACGTGGTATG

Relative binding free energy, 0.22 kcal/mol:
GGCATCACGTGGTTTT
GTTATCACGTGCAATG
TTTAGCACGTGAGAAA
TGGGACACGTGTAAAT
CTCGTCACGTGATTGT
TGGCGCACGTGAAGTT
CGATTCACGTGTAAGG
TATTGCACGTGAAATG

Relative binding free energy, 0.11 kcal/mol:
GGGAACACGTGTTAGA
GTGTACACGTGCAGGA

Relative binding free energy, 0.1 kcal/mol:
ATTGTCACGTGGCTAC
ATTGTCACGTGACGGA
TATGTCACGTGGCAAA
TGTTACACGTGCGGTT
ACTTTCACGTGGGTAT

Relative binding free energy, -0.14 kcal/mol:
TGGCGCACGTGTTTAG

Relative binding free energy, 0.3 kcal/mol:
GGCGGCACGTGAGATG
TAGTTCACGTGAAGAT
TAGTTCACGTGTTGTG
ATTCTCACGTGAGTTG
GTTATCACGTGAGGCG

Relative binding free energy, -0.13 kcal/mol:
GTTGGCACGTGCATGT

Relative binding free energy, -0.15 kcal/mol:
ATAAGCACGTGTTGCG

Relative binding free energy, 0.31 kcal/mol:
TAGGTCACGTGAATAT
AATATCACGTGAGTGG

Relative binding free energy, 0.07 kcal/mol:
GTTGCCACGTGAGTGG
AGCGTCACGTGGGTCT
TGATGCACGTGTTATG
AGGGTCACGTGGACGA

Relative binding free energy, -0.06 kcal/mol:
ATATACACGTGATTGT
TGGGGCACGTGTGCGG
ATGTGCACGTGGACAG
ATAAACACGTGGGTAG
CATGTCACGTGGTATT
AAAGACACGTGGAGGT
CTGAGCACGTGTTGGA
GGCACCACGTGGTGGG

Relative binding free energy, 0.14 kcal/mol:
TAGTTCACGTGGGTGC
TAATTCACGTGTAAGG
GGGGGCACGTGGATTC
AGTTACACGTGTGGGT

Relative binding free energy, 0.15 kcal/mol:
ATAAACACGTGAGGGT

Relative binding free energy, 0.29 kcal/mol:
TTGTTCACGTGCAAGT
TTAGACACGTGATTGT
CTGGTCACGTGATTGC
ATATTCACGTGAGGTT

Relative binding free energy, 0.16 kcal/mol:
GGCGTCACGTGTGGAA
GTTGTCACGTGTCAAT
AAGGTCACGTGTGAAG
CGCAACACGTGTGGGT
GTATTCACGTGTGTAC
TTTATCACGTGTGGCA
TGGCTCACGTGGTGTC

Relative binding free energy, 0.2 kcal/mol:
CAGGGCACGTGAAGGG
TGTTCCACGTGTGAGA
GGAGTCACGTGTTCAG
TGGTTCACGTGGCGCG

Relative binding free energy, -0.1 kcal/mol:
CCGGGCACGTGTGGAG
CGTGGCACGTGGTTTT

Relative binding free energy, 0.26 kcal/mol:
ATGCTCACGTGTAATG
TCTTACACGTGATTTT
TATGACACGTGAGTTG

Relative binding free energy, -0.24 kcal/mol:
CTGTGCACGTGGGGTA
TCTGCCACGTGGGGGT
TAAGGCACGTGGGGTA
AAAGGCACGTGGTTTT
GAGGGCACGTGGCGAG

Relative binding free energy, 0.32 kcal/mol:
TTTTTCACGTGAGTAA
AAAGTCACGTGAGGTT

Relative binding free energy, 0.18 kcal/mol:
ATGGTCACGTGGAAGG
TTATTCACGTGTGCGA
TGTTGCACGTGGAAAG
GAGGTCACGTGCATTG
GTTTACACGTGGTGTT

Relative binding free energy, -0.09 kcal/mol:
ATTGGCACGTGGTGAG
TACGGCACGTGGTAGG
AACGGCACGTGTGGTT
CAGGGCACGTGGAGCG
AAGGGCACGTGGATTT
GTATGCACGTGCAGTG
AATAGCACGTGGCGTT

Relative binding free energy, -0.07 kcal/mol:
ACTAGCACGTGGTTTT
CTGTGCACGTGTTATG

Relative binding free energy, -0.22 kcal/mol:
CCAGGCACGTGGGGGT

Relative binding free energy, 0.25 kcal/mol:
GTAGTCACGTGTTACT
TTGTTCACGTGCGGTC
CTTTTCACGTGTTAGG
TGTGTCACGTGAGAAG

Relative binding free energy, -0.01 kcal/mol:
CAATTCACGTGGGGGG
ATCTGCACGTGTTTTA
GTGGGCACGTGGATCG
TGGGGCACGTGTGGTT
CTTCTCACGTGGTGTG

Relative binding free energy, 0.02 kcal/mol:
TGTCACACGTGGGAGA
AATGTCACGTGTTGTC

Relative binding free energy, -0.08 kcal/mol:
GGTGGCACGTGCAGGT
AGGGACACGTGGTGTG

Relative binding free energy, 0.41 kcal/mol:
GTCTTCACGTGAGCGT
AGATTCACGTGAGTTT

Relative binding free energy, -0.25 kcal/mol:
AAATGCACGTGGCGGT

Relative binding free energy, 0.34 kcal/mol:
GCTGTCACGTGAGTTT
CTGTTCACGTGTGTTG

Relative binding free energy, 0.03 kcal/mol:
TAGAGCACGTGATTGA
GTGAGCACGTGGAGGA
TGGAGCACGTGTACAT
GTAGACACGTGGCGTG

Relative binding free energy, 0.24 kcal/mol:
TGAGTCACGTGATAAG
TGAAGCACGTGAAGAG
ACCGTCACGTGAGGTG
AGTGTCACGTGATTGG
CGAGTCACGTGTTGGG
AGATTCACGTGGGAGA

Relative binding free energy, 0.09 kcal/mol:
CGTTTCACGTGTAGGT
TGTTCCACGTGATTAT
TTTAACACGTGTTGAC
TAGGACACGTGTTGCT

Relative binding free energy, -0.17 kcal/mol:
GTAGGCACGTGGCGCA
ATGGCCACGTGGGGTG

Relative binding free energy, 0.39 kcal/mol:
TTTTTCACGTGAGTTA
GTTCACACGTGAGGTT

Relative binding free energy, -0.16 kcal/mol:
AGTAGCACGTGGGGAT

Relative binding free energy, -0.2 kcal/mol:
CGTGGCACGTGGGCAT
AGAGCCACGTGGGGTT
TTTGCCACGTGGGTAG
AAATGCACGTGGGGGT
ATTGGCACGTGTGTCT

Relative binding free energy, -0.11 kcal/mol:
TCAAACACGTGTTGGG
AATGGCACGTGGAGAG
TGGGACACGTGGGTAC
AAAGGCACGTGTATGT
CACGGCACGTGGTATG
CGGCGCACGTGGTGCG
GCTAGCACGTGGGTGC

Relative binding free energy, -0.05 kcal/mol:
GATTGCACGTGGGTTG
TATCGCACGTGTGGAA
TGGTACACGTGGCCGT
GTTCACACGTGCGTGG
CGTTGCACGTGCGGTT

Relative binding free energy, 0.12 kcal/mol:
TATTTCACGTGGTCGA

Relative binding free energy, 0.4 kcal/mol:
TTATTCACGTGGAAAA
GGTTTCACGTGAGTAG

Relative binding free energy, -0.19 kcal/mol:
GAAAGCACGTGGGGGT
CGAGCCACGTGGGTTG
TTTAGCACGTGGGTAC

Relative binding free energy, 0.23 kcal/mol:
ATAGACACGTGAGGGG

Relative binding free energy, -0.21 kcal/mol:
GCTTGCACGTGGGCTG

Relative binding free energy, 0.13 kcal/mol:
GTTAGCACGTGAGTAA
TAGCTCACGTGTTATG

Relative binding free energy, 0.08 kcal/mol:
GTTAGCACGTGTTTCA
GGGGTCACGTGTACAT
GTTATCACGTGGGGTC
GTCTGCACGTGCGGTA
TGGATCACGTGGTAAT
GTGAACACGTGGAGGT

Relative binding free energy, 0.33 kcal/mol:
AGTTTCACGTGTTCCT
GGGCGCACGTGATTTT
GTGGTCACGTGAGATT
GGGTTCACGTGGGATT
GTGCTCACGTGTGATG
GTGTTCACGTGACGGG
TTTAACACGTGAGTCA

Relative binding free energy, 0.05 kcal/mol:
CATTGCACGTGCGTAT
GTATGCACGTGGTAAG
GGGGTCACGTGGGTCG
AAGGACACGTGTGGGC

Relative binding free energy, -0.02 kcal/mol:
CGTAGCACGTGGAATG
AATAGCACGTGTTTTT
TGTGGCACGTGTTAGT

Relative binding free energy, 0.36 kcal/mol:
GTAATCACGTGAGTGA
AATTTCACGTGTGTTT

Relative binding free energy, 0.06 kcal/mol:
ATGTGCACGTGAACGT
GATGGCACGTGGAGTG
TAAGGCACGTGATTTG
GGTGACACGTGGATGG
TTCGTCACGTGCGTGA
ATCTGCACGTGATGTT

Relative binding free energy, 0.28 kcal/mol:
TTTTTCACGTGGGTAA
TTGTACACGTGAGACG
GGGCACACGTGAGTTG

Relative binding free energy, 0.21 kcal/mol:
TTAGTCACGTGGAAAG
TCAGTCACGTGTTTGT
